# Test results: the RNAGym collection of RNA variant scans (doi:10.1101/gad.245936.114)
# Variants at the background level are over-represented here.
# B1: tRNA (parent)
# chain: CUCUCGGUAGCCAAGUUGGUUUAAGGCGCAAGACUUUAAUUUAUCACUACGAAAUCUUGAGAUCGGGCGUUCGACUCGCCCCCGGGAGAUUUUUUCCUCGAGCAA
# Variants of: B1
# Assay: nonsense suppression (GFP-seq) (ratio to wild type); higher = more function; SUP4oc tRNA, yeast GFP reporter sort-seq
# Method in brief: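 To measure nonsense suppression, tRNA variants from a library carrying ~3% random mutations were integrated into the yeast genome alongside RFP and a GFP ochre reporter under galactose control. Growth took place in raffinose/galactose medium supplemented with 80 mg/L adenine, followed by sorting into GFP/RFP bins and Illumina sequencing of each bin (phred ≥30). For each variant with ≥100 reads and ≥30 cells, the bin median GFP/RFP values were weighted by its estimated cell share per bin and referenced to the unmutated parent tRNA.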
row,Variant,nonsense suppression
1,A14U G86C,≤ 0.026
2,G15A G18A A31G U57C U58C,≤ 0.026
3,A14U A24C,0.0284
4,A14U A24G,≤ 0.026
5,A14G A54U G85U,≤ 0.026
6,A14U U58A A60U,≤ 0.026
7,A14G C29U G88C,≤ 0.026
8,G15A A54C U71G G78A,≤ 0.026
9,A14U C27U,≤ 0.026
10,A14C U20G,≤ 0.026
11,A14G G84A,≤ 0.026
12,G15A U16C G18A G61C G88A,≤ 0.026
13,A14U C27G U55C A60U C75G,≤ 0.026
14,G15C C27G C34U,≤ 0.026
15,G15A A24G,≤ 0.026
16,G15A A24C,0.0467
17,G15A U20G G84C,≤ 0.026
18,G15C G18A A31U A62U,≤ 0.026
19,A14C U20G A60C,≤ 0.026
20,A14U C64G G69C,≤ 0.026
21,G15A A33G,0.0395
22,G15A C34G C83A G85C,≤ 0.026
23,A14G U21C,≤ 0.026
24,A14U G28U,≤ 0.026

row,Variant,nonsense suppression
1,A14U G28A,≤ 0.026
2,A14U G28C,≤ 0.026
3,G15A C56A,≤ 0.026
4,G15C C27G G59A G78C,≤ 0.026
5,G15A C77G,≤ 0.026
6,G15A U58A C72A,≤ 0.026
7,A14G U57C U58A,≤ 0.026
8,G15C A24C G69A U71G,≤ 0.026
9,G15A G66A,≤ 0.026
10,G15C A60G,≤ 0.026
11,G15C A60U,≤ 0.026
12,A14G G18U U22G,≤ 0.026
13,A14U C27U A33U,≤ 0.026
14,G15A U21C C34G U35G U58A,≤ 0.026
15,G15A A30G G66C,≤ 0.026
16,G15C G88A,≤ 0.026
17,A14U U20C A30G A60G G69C U70G,≤ 0.026
18,A14U C27A C34U,≤ 0.026
19,A14G U20A C68A,≤ 0.026
20,G15C G69A G78C,≤ 0.026
21,G15C G84A,≤ 0.026
22,A14U G61C G67C,≤ 0.026
23,A14G G15A G19C C77G,≤ 0.026
24,A14G G25A G67U,≤ 0.026

row,Variant,nonsense suppression
1,A14U G25U U57A U70C C79G,≤ 0.026
2,A14U A30G C82G,≤ 0.026
3,G15A C29U C77G,≤ 0.026
4,A14C U22G A54G G73C C79A,≤ 0.026
5,A14G C77U G86A,≤ 0.026
6,A14U A23U U71C G88C,≤ 0.026
7,G15A A23C,≤ 0.026
8,G15A U21A G65A,≤ 0.026
9,A14G C68G G88A,≤ 0.026
10,A14G U20A U22C G66A,≤ 0.026
11,G15C A24C G28U G61U A74C G85U,≤ 0.026
12,A14U U20A A74C C81A,≤ 0.026
13,A14G A23U G88U,≤ 0.026
14,G15C U16C,≤ 0.026
15,A14G C77A,≤ 0.026
16,A14G G18A C34G U70C C72G,≤ 0.026
17,A14G U57C U71G,≤ 0.026
18,G15C G65A G78A C80A,≤ 0.026
19,A14U A24G G84C,≤ 0.026
20,A14U U22G A24U G61U G67C A89U,≤ 0.026
21,A14U U63C G66U G69C,≤ 0.026
22,G15C G18C U21C A31C C68G G78A,≤ 0.026
23,A14G U58G C75G,≤ 0.026
24,G15A A31U A62C,≤ 0.026

row,Variant,nonsense suppression
1,A14U G59A U71C,≤ 0.026
2,A14U U17A C81G,≤ 0.026
3,G15A G28A A60U G86C,≤ 0.026
4,A14G G28U G78C,≤ 0.026
5,G15A G67A C72A,≤ 0.026
6,A14U U58A,≤ 0.026
7,G15C A23G G59U G66U,≤ 0.026
8,A14G G18C A30U G66C,≤ 0.026
9,A14U G66U,≤ 0.026
10,A14C G67U U70C,≤ 0.026
11,A14U U55C,≤ 0.026
12,G15C G25C A54U,≤ 0.026
13,A14U U17G C27U U55C,≤ 0.026
14,G15C A87G,≤ 0.026
15,G15C A87U,≤ 0.026
16,G15C C56U A87C,≤ 0.026
17,A14G C81A,≤ 0.026
18,A14G C79A,≤ 0.026
19,A14G U20A G26U A54C A87U,≤ 0.026
20,A14C G59U,≤ 0.026
21,A14G U22A C27A,≤ 0.026
22,A14C U16A G19A,≤ 0.026
23,A14U A31G U57A,≤ 0.026
24,A14G G32C,≤ 0.026

row,Variant,nonsense suppression
1,A14G C27U G78C,≤ 0.026
2,A14U G19C U71G,≤ 0.026
3,A14G G66U,≤ 0.026
4,A14U U55C G66U C83A,≤ 0.026
5,A14C U76C G78C G88C,≤ 0.026
6,G15A C27U U58G,≤ 0.026
7,A14C G78U,≤ 0.026
8,A14G U63A,≤ 0.026
9,G15A G78U,≤ 0.026
10,A14U C56A U70G,≤ 0.026
11,A14G U57G G61A,≤ 0.026
12,A14G C29U G78A,≤ 0.026
13,A14C G32C C64A,≤ 0.026
14,G15A A31G G73C U76C G84U,≤ 0.026
15,A14G U17A G25A C29U U63G,≤ 0.026
16,A14C G25U,≤ 0.026
17,A14G A62U C72A,≤ 0.026
18,G15C G25A A31C,≤ 0.026
19,A14C G69A,≤ 0.026
20,A14C G69U,≤ 0.026
21,A14C U22C,≤ 0.026
22,A14G A33G A54C C75U,≤ 0.026
23,G15A G73C C75G,≤ 0.026
24,A14G A23U G69C,≤ 0.026

row,Variant,nonsense suppression
1,A14U U17G G18C A23G A31G,≤ 0.026
2,G15C U17C G84C,≤ 0.026
3,A14U G19U A24G A30U G61U C75G,≤ 0.026
4,A14U A62C C75G G84U,≤ 0.026
5,A14U A31U A87G,≤ 0.026
6,G15C C29G,≤ 0.026
7,G15C A23G U71A,≤ 0.026
8,A14C G19U A23G U55C G69C,≤ 0.026
9,G15C G73U,≤ 0.026
10,A14U G18U A23U C27G,≤ 0.026
11,A14G U20G,≤ 0.026
12,G15C G59U,≤ 0.026
13,A14U C68G,≤ 0.026
14,A14U U55A A87U,≤ 0.026
15,G15A G59C G66C C77G,≤ 0.026
16,G15A A62U,≤ 0.026
17,A14G A30C G61C A74U,≤ 0.026
18,A14G U16C A33C G88A,≤ 0.026
19,G15A U63C,≤ 0.026
20,A14G G61U,≤ 0.026
21,A14C G73A G88A,≤ 0.026
22,A14C U20G G25C A33G C56G U71G,≤ 0.026
23,A14U U57G U76A C83A,≤ 0.026
24,G15A G69A G73U,≤ 0.026

row,Variant,nonsense suppression
1,A14U U16C U21G G59C G69A,≤ 0.026
2,G15A C80U,0.167
3,A14U A33U U35A G69U,≤ 0.026
4,A14C U16C G26C A74C,≤ 0.026
5,G15A C29U U55G U76C,≤ 0.026
6,A14G U57G G78C,≤ 0.026
7,G15A A54G G66C C75G C79A C81U,≤ 0.026
8,G15A G65C,≤ 0.026
9,A14U A24U A74C,≤ 0.026
10,A14G C68U,≤ 0.026
11,A14G C68A,≤ 0.026
12,A14U G18A A24G U71C,≤ 0.026
13,A14U C27G A60U,≤ 0.026
14,A14G A31U G66C,≤ 0.026
15,G15A A24C A33C U55A U70A G84A,≤ 0.026
16,A14U G59A,≤ 0.026
17,G15A U20G,0.189
18,G15C G18A U58A G61U G73U A74U,≤ 0.026
19,G15A U57C G61C,≤ 0.026
20,A14G G15U,≤ 0.026
21,A14G A24C G61U C68U A87G,≤ 0.026
22,G15C G19U G66C,≤ 0.026
23,A14U C64G G67A,≤ 0.026
